Assay results: PubChem BioAssay (NCATS)
Inconclusive results, whose numbers are uncertain, are shown with a selection of clear calls. A potency beside an inconclusive call is a rough fit, not a confirmed value. For part of these data: “Side channel” marks fits to a control or component signal instead of the main read-out. Active and inactive are the calls of the source. Unless noted, the call rests on the fitted dose curve; in most records, active means well fitted inhibition curve with a large enough effect; inconclusive means small, poorly fitted or top-dose-only effect; inactive means no such curve, though single readings can be large or run the other way.

Target: Cytochrome P450 2C9 (Homo sapiens) (UniProt P11712)
UniProt P11712, sequence (P11712 whole entry, looked up): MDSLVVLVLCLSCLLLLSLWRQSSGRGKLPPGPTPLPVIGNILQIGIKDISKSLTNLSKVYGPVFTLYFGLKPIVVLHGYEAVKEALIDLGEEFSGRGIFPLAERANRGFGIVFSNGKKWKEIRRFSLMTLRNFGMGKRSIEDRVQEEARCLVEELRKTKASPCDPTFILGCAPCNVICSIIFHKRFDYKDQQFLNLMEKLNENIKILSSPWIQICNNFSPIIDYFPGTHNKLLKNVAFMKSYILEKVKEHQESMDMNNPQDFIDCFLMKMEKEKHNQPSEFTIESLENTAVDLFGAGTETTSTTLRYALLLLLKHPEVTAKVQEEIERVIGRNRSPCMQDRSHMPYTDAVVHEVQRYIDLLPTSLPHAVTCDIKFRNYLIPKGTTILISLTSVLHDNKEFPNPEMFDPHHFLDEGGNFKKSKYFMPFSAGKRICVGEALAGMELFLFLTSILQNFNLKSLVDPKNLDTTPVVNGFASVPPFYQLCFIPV
Experiment: qHTS Assay for Inhibitors and Substrates of Cytochrome P450 2C9 (AID 883); further: nearly all actives have a fitted effect of over 60% in size
Details: recombinant CYP2C9, luciferin-H luminescence, 60 min; activity change, negative = inhibition: at 57.1 µM (top of the series)
Outline: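 CYP2C9 deoxyluciferin hydroxylation, 37C, 60 min with NADPH regeneration; 10nM enzyme, 100uM Luciferin-H (KM). Glo detection reagent stopped reaction; luminescence normalized to sulphaphenazole (57uM) full inhibition.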
Potency means the concentration at half of the fitted maximal effect; tags describe the fitted curve by direction and shape or compound fluorescence and quenching.

Question: For COc1ccc2[nH]cc(CCNc3ccnc(-c4ccoc4)n3)c2c1, which Potency is on record?
Answer: inconclusive: 0.794 µM [inhibitor, partial curve]

Question: For COc1cccc(Nc2ncc3nc(C)c(=O)n(CCc4ccccc4)c3n2)c1, which Potency is on record?
Answer: inconclusive: 3.16 µM [inhibitor, full curve]

Question: For CN(Cc1ccco1)c1ncncc1-c1ccc2c(c1)OCO2, which Potency is on record?
Answer: inconclusive: 0.794 µM [inhibitor, partial curve]

Target: Cytochrome P450 3A4 (Homo sapiens) (UniProt P08684)
UniProt P08684, sequence (P08684 whole entry, looked up): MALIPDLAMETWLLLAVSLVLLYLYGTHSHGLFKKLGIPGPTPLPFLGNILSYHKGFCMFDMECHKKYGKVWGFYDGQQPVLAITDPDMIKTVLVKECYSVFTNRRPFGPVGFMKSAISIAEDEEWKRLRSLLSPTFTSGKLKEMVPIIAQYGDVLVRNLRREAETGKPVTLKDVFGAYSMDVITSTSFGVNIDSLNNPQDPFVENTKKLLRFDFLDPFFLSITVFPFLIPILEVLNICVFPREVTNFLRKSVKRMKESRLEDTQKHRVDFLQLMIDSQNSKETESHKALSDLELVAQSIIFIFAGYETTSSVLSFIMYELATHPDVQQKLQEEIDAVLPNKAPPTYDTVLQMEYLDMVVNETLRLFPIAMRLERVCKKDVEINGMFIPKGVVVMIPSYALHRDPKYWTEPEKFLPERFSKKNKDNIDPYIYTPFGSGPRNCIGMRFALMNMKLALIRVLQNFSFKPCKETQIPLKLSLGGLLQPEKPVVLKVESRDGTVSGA
Experiment: qHTS Assay for Inhibitors and Substrates of Cytochrome P450 3A4 (AID 884); further: nearly all actives have a fitted effect of over 50% in size
Details: recombinant CYP3A4, Luciferin-PPXE luminescence; series mostly up to 57.1 µM
Outline: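 20 nM human CYP3A4 with 25 uM Luciferin-PPXE (at KM) in 200 mM KPO4, preincubated 10 min with compound; NADPH regeneration started a 60 min RT reaction. Luciferin detected by luminescence, normalized to 57 uM ketoconazole as full inhibition.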

Question: With CCNc1ncc2nc(-c3cccs3)c(=O)n(C[C@H]3CCCO3)c2n1 as the molecule, how does the Potency read?
Answer: inconclusive: 7.94 µM [inhibitor, partial curve]

Question: With CCNc1ncc2nc(C)c(=O)n(Cc3ccc(F)cc3)c2n1 as the molecule, how does the Potency read?
Answer: inconclusive: 7.94 µM [inhibitor, partial curve]

Question: With CN(C)C(=O)c1ccc(-c2ccc3ncnc(Nc4ccccc4)c3c2)cc1 as the molecule, how does the Potency read?
Answer: inconclusive: 7.94 µM [inhibitor, partial curve]

Target: Cytochrome P450 2C19 (Homo sapiens) (UniProt P33261)
UniProt P33261, sequence (P33261 whole entry, looked up): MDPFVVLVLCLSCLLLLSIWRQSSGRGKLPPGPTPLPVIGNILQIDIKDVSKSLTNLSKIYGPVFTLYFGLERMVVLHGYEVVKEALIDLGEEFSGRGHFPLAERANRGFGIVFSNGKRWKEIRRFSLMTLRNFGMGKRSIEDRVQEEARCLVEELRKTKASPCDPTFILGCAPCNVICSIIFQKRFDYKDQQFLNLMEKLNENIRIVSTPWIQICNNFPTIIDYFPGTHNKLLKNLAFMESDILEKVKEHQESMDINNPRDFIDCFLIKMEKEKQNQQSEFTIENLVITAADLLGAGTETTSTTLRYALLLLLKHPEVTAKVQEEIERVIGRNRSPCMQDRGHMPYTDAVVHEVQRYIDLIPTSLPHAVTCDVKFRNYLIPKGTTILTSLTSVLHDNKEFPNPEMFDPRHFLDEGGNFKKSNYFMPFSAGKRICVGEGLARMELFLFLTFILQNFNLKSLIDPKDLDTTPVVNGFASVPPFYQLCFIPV
Experiment: qHTS Assay for Inhibitors and Substrates of Cytochrome P450 2C19 (AID 899); further: nearly all actives have a fitted effect of over 60% in size
Details: recombinant CYP2C19, luciferin-H EGE luminescence; series mostly up to 11.4 µM
Outline: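 In 50mM KPO4, the reaction held 5nM enzyme and KM-level (10uM) Luciferin-H EGE; it ran 60 min at 37C after NADPH regeneration and a 10 min compound preincubation. Luminescence values were scaled to 57uM ketoconazole as complete inhibition.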

Question: Which Potency does the source give for CCNc1ncc2nc(C)c(=O)n(Cc3ccc(F)cc3)c2n1 here?
Answer: inconclusive: 6.31 µM [inhibitor, single point]

Question: Which Potency does the source give for c1ccc(Nc2ncncc2-c2ccc3c(c2)OCO3)cc1 here?
Answer: active: 0.251 µM

Question: With O=c1c(-c2cc(F)cc(F)c2)nc2cncnc2n1-c1ccccc1 as the molecule, how does the Potency read?
Answer: inconclusive: 6.31 µM [inhibitor, partial curve, poor fit]

System: not listed separately
Experiment: qHTS Assay for Identification of Small Molecule Agonists for Hypoxia Response Element Signaling Pathway (AID 914; active means well fitted activation curve with a large enough effect in the signal ratio, with a control signal flat, not every such curve was filed as active; inconclusive means small, poorly fitted or top-dose-only effect, or effect the other way, or a change in a side signal; the % refers to the signal ratio; on activation: top concentration of the series differs between compounds; % of control where 0% means no effect)
Details: ME-180 (cervical carcinoma) HRE-bla reporter, beta-lactamase ratio, CoCl2, 17 h; activation: stronger effect = higher value
Outline: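 AC50 values come from titration-series %Activity, taken as the 460/530nm ratio of CCF4 fluorescence (excitation 405nm). CellSensor HRE-bla ME-180 cells were treated 17 hours at 37 C with compound plus an EC50 level of CoCl2.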

Question: Which Potency does the source give for CCNc1ncc2nc(-c3cccs3)c(=O)n(C[C@H]3CCCO3)c2n1 here?
Answer: inconclusive: 3.16 µM [fluorescent, side channel, single point]

Question: With CN1CCN(c2ncc3nc(-c4cccs4)c(=O)n(CCC#N)c3n2)CC1 as the molecule, how does the Potency read?
Answer: active: 3.16 µM

Question: For CCNc1ncc2nc(-c3ccc(Cl)cc3)c(=O)n(Cc3cccs3)c2n1, which Potency is on record?
Answer: active: 0.126 µM

Question: With COc1ccc(CNc2cc(-c3cccc(C#N)c3)ncn2)c(OC)c1 as the molecule, how does the activation read?
Answer: inconclusive: -29.1%

Question: Which activation does the source give for COc1ccc(Oc2ncc3nc(-c4cc(F)cc(F)c4)c(=O)n(C[C@H]4CCCO4)c3n2)cc1 here?
Answer: inconclusive: -30%

Question: For Cc1ccccc1-c1cc(NCc2ccccc2)ncn1, which Potency is on record?
Answer: inconclusive: 3.16 µM [activator, single point]

Question: For COc1ccc2[nH]cc(CCNc3ncncc3-c3ccc(C(=O)N(C)C)cc3)c2c1, which activation is on record?
Answer: inactive: 11.5%

Question: For Clc1ccccc1-c1nc(NCCN2CCOCC2)c2ccccc2n1, which Potency is on record?
Answer: active: 3.16 µM

Question: With CN(Cc1ccco1)c1ncncc1-c1ccc2c(c1)OCO2 as the molecule, how does the activation read?
Answer: inactive: 4.7%

Question: With CNc1cc(-c2c(C)noc2C)ncn1 as the molecule, how does the Potency read?
Answer: active: 3.16 µM

Question: For Cn1cc(-c2nc3cnc(OCc4ccccc4)nc3n(CCC#N)c2=O)c2ccccc21, which Potency is on record?
Answer: inconclusive: 3.16 µM [activator, single point]

Question: For Cn1cc(-c2nc3cncnc3n(Cc3ccccc3Cl)c2=O)c2ccccc21, which activation is on record?
Answer: inactive: 15.7%
